Measured values reported in patent US20260200947A1, “FUSED CYCLIC COMPOUNDS AND USE THEREOF” (Jacobio Pharmaceuticals Co., Ltd., priority 2022, published 2026).

Tests used:
[1] = system: AsPC-1 cells (K-Ras G12D)

For `C#Cc1c(F)ccc2cc(O)cc(-c3nc4c5c(nc(OC[C@@]67CCCN6C[C@H](F)C7)nc5c3F)N3CCC=CC[C@H]3CO4)c12` [Compound 63], which IC50 (AGS cells (K-Ras G12D)) is on record?
Its IC50 is 0.526 nM.

What about the IC50 [1] of the same compound?
Its IC50 is 6.66 nM.
